± gives the standard deviation of the averaged measurements. Some of the results follow.
These sequences were tested on PfAP2-I AP2 domain 3 (GST-tagged) (assay: gcPBM binding intensity (ln(normalized median fluorescence intensity)); higher = stronger DNA binding).
Procedure, shortened: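 Using an Agilent 4 × 180k array, primer-extended double-stranded 36-bp intergenic genomic probes and negative controls were exposed for 1 h to GST-fused P. falciparum DNA-binding domains expressed in E. coli. Binding was carried out in 1× PBS with 1% milk, 0.2 mg/ml BSA, 0.5% salmon testes DNA and 0.03% Triton X-100, and protein was detected with Alexa488 anti-GST antibody and a 488 nm scan. Binding intensity is the highest Masliner-normalised natural-log median intensity across replicate spots of either probe orientation.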

Sequence | gcPBM binding intensity (ln)
TATAAATACATACGTACACACAAATATTAAAATATA [CACACA_site5129] | 7.905 ± 0.007
ATGTTACTCAGACACACACACATAAAAAAACAAAAA [CACACA_site3249] | 8.05 ± 0.49
TGTGTTAATATATGAAGTACACAATACACACTAATT [XGTACX_site5469] | 8.12 ± 0.56
AAAAAGGAGAAACACACACACACACCCATATATATA [CACACA_site905] | 8.31 ± 0.86
CATGCTACATCTTATTGTACTTATCTAATGTTAGTA [XGTACX_site1863] | 7.76 ± 0.66
AGGCAATATTATATATATATATATATATATATATAT [CACACA_negctrl_site826] | 9.37 ± 0.39
TCTTTTTACACCTCTTACATAAAACAAAATAAGGGG [XGTACX_negctrl_site12] | 9.12 ± 0.2
TATACATGTTATGTACATCTAATCACACGTGCAATA [CACACA_negctrl_site1267] | 8.63 ± 0.59
TGTATGTTTGGGTGCACACATAAATATTATATATAG [CACACA_site3397] | 10.5 ± 0.57
ATATATATAAAACACACACACACATGGTTTAAAACT [CACACA_site4219] | 8.12 ± 0.7
TTGTAAATTTACATTTGTACATAAATATATTAATAT [XGTACX_site3969] | 7.75 ± 0.42
TATATATTCATATGTTGTACATAAATACAAATAAGA [XGTACX_site5602] | 7.68 ± 0.44
TGCAGTCTGGAGAAGAGTACACAGTATCTGGTAACA [XGTACX_site2037] | 7.83 ± 0.56
AAAGGTAAATGTAAATAAATAAATAATAAATATATA [GTGCAC_negctrl_site681] | 7.42 ± 0.4
AACAGAATAATACTAAATGAACGATTTCTCTTTATG [GTGCAC_negctrl_site376] | 7.34 ± 0.59
ATTTTTTTTTTTTTTTTTTATATGCTCTCCATGAGA [CACACA_negctrl_site1225] | 7.59 ± 0.48
ATTAATATGAATAAAACACACATATATAATTTGTAA [CACACA_site1929] | 7.42 ± 0.6
TAACTTTTATCCTTAATTCATATATAAGATTAAATC [CACACA_negctrl_site669] | 7.44 ± 0.35
AAAAAAAAAAAGAAATGTACATGAATATTTTAAATG [XGTACX_site4069] | 7.74 ± 0.57
TGTGTATATTATATGTGTACATATCAATGTTTATAT [XGTACX_site1885] | 8.01 ± 0.32
TAATATATAACGTGCACACACACATCTACGTATGAA [CACACA_site5080] | 10.82 ± 0.099
TAATATTAAATAAATAAAATATATAATATATATATA [XGTACX_negctrl_site49] | 8.41 ± 0.4
TGGCATTAAAATTTAGTGCATATATCTTAGCATGGG | 10.2 ± 0.33

Sequence | gcPBM binding intensity (ln)
TATTGTTATTAAAAATGTACATATAAATTTCTTATT [XGTACX_site1409] | 7.73 ± 0.23
AAAAATAAAAGGTGTGCACACAAAAATATATATATA [CACACA_site8507] | 9.74 ± 0.26
GTATGATGCATAAGAGTGCATAAGGATATTTCTTCA | 10.8 ± 0.3
AATTTAAAAAATAACAGTACATAAAATATATACATA [XGTACX_site7917] | 7.36 ± 0.38
TTTATATAATATGAATGTACTTATATATTTATAGAC [XGTACX_site3261] | 8.12 ± 0.16
AAGACTCTTTGTCCTTGTACATATATTTTTATGTTT [XGTACX_site3711] | 7.76 ± 0.59
TATTTATTCTCCAACACACACACATATATATATATA [CACACA_site2894] | 9.52 ± 0.3
AAAATGAATTTAAAATGTACTTTTTCTAAAGAGTAA [XGTACX_site2337] | 7.52 ± 0.42
TTATAGGTGCTTCGTAGTACATAAAAATAATATATA [XGTACX_site6979] | 8.05 ± 0.22
AGTTTTATATTTCTGAGTACTTATGAATCTAGCTCG [XGTACX_site4330] | 7.73 ± 0.69
TTGTAAAAAATTCATACACACGTCTTATTTTTAAGA [CACACA_site8390] | 7.36 ± 0.49
ATTTTTTCTAAAAGTTGTACATTAAAACGTGTTCAC [XGTACX_site4803] | 7.83 ± 0.36
TTTTTTTTTTTTTTTACACACATTTTAATAATTTTA [CACACA_site1492] | 8.11 ± 0.77
TTATTTCTAATTCGTTGTACAATATATAATATATAT [XGTACX_site5861] | 8.21 ± 0.36
TATCCATATTTGTTCACACACACACGGATTTATATA [CACACA_site7649] | 7.91 ± 0.47
GGAATATTATTTCAATGTACATTTTGAGATTAGAAT [XGTACX_site8187] | 7.8 ± 0.39
ATTATTATTTTACGTAGTACATATAATAAATATTTA [XGTACX_site8934] | 7.5 ± 0.11
TTGATAGACACATGCACACATGCAATACTTTATTCA [CACACA_site3000] | 8.72 ± 0.66
TAGGTGTTAAAAAATACACACACAAAAAAAAAAAAA [CACACA_site7927] | 8.03 ± 0.7
CCTTTAAGCAAAAACACACACACATATATATATATA [CACACA_site348] | 9.39 ± 0.27
TCTTCCATTTTTATTACACACATAAATATGAAATCG [CACACA_site3471] | 8.07 ± 0.5
TATAAAATAAAAAATATATATATGTATATATATATA [TGCATGCA_negctrl_site163] | 9.32 ± 0.45
ATTATTTTATATACATGTACATATTATATATAAAAG [XGTACX_site2735] | 7.85 ± 0.47

Sequence | gcPBM binding intensity (ln)
TATAAGTGCTCAACGGTGCATTTATAGAAGTTAAAC | 10.8 ± 0.58
TTAGATATTAATATATGTACATATTAATATATTTAC [XGTACX_site7119] | 7.55 ± 0.45
CACACTTTTTAAATTAACGCATTTCAAAAAAAATAT [CACACA_negctrl_site84] | 7.85 ± 0.49
TATTTATACACGCACACACACTTATACATTTATATA [CACACA_site7543] | 8.56 ± 0.18
TTTCTTTTTTAGAGGTGTACACGTAGGCCTCTTGGA [XGTACX_site4760] | 8.2 ± 0.33
TAAATGTAAAACGAAATGCACACTATGGAAAATATA [CACACA_site724] | 9.08 ± 0.45
TATAATTTTTACTGGGTGCACTCGATATTTTAAATA | 10.6 ± 0.57
TTTCTATATCTTTCAACACACAAATTTTTTTTTCCA [CACACA_site108] | 7.82 ± 0.64
ACATACATACCCCCACGTACGTACCGAAACACCACC [XGTACX_site1982] | 9.48 ± 0.39
AATTTTATATATATATGTACATATTTATATGCTTAT [XGTACX_site8180] | 7.87 ± 0.39
AATATAAGTGTACATACACACTTTACAATATCATAT [CACACA_site5634] | 7.91 ± 0.52
CAAAGAACTTATAGGGTGCTTTACTTATAAGTAAAT [GTGCAC_site9579] | 10.8 ± 0.42
GTGGTTGTAATGGTGGTGCATATTGTATATTATGTT | 10.5 ± 0.26
ATGTTAACTAAATGTACACACCTATGTTGATGTAAC [CACACA_site5073] | 7.87 ± 0.54
AAAGTTTAAATGAGAAGTACAAATTTTTGTTTTTAT [XGTACX_site1844] | 7.66 ± 0.52
TATATATATAAAATATGTACATAAAATTATTTATTT [XGTACX_site7666] | 8.36 ± 0.34
TCATAGGAGAACTTTTGTACAGATTTTTCTTTTTTT [XGTACX_site2853] | 7.42 ± 0.65
GTAATACACATATAATGTACTCATAAATATATTTAT [XGTACX_site4041] | 8.04 ± 0.46
AGCAAAAATTAAATAAATAAATATATATATATATAT [TGCATGCA_negctrl_site449] | 9.21 ± 0.15
ATATTAATAATATATACACACATAAGTATTGTATAT [CACACA_site4095] | 7.52 ± 0.35
GCAACATTCTAAGACACACACACACCCATATATATA [CACACA_site1053] | 8.45 ± 0.61
AATGATGTCATAGGGGGTACACATAAATGTGAATGT [XGTACX_site6745] | 8.68 ± 0.014
AATAATATATATATATATATATATAGATATGTATAT [GTGCAC_negctrl_site653] | 8.04 ± 0.25

Sequence | gcPBM binding intensity (ln)
TATACATAGAAACACACACACATATATATATATATA [CACACA_site2248] | 9.43 ± 0.49
GTTTATTCTTTTTATACACACCTTATTTGATTAACA [CACACA_site4567] | 8.21 ± 0.52
TTACTACTATATTATACACACATATATATATATATA [CACACA_site2621] | 9.4 ± 0.75
TGTGAATAAATAAGCACACATAAACACATATATAAA [CACACA_site6114] | 8.27 ± 0.2
TTAAAAGAAAAAATATGTACATATATTATATATATC [XGTACX_site7009] | 7.83 ± 0.43
TTTATTTATGTAGATACACACCCATGTTATATGGAG [CACACA_site9144] | 7.7 ± 0.55
TTCTAATATTTTTGCACACTAAACAATAAATTTCCT [CACACA_site3944] | 9.45 ± 0.18
TATATTACTTTGTGTTGTACGGAAATATATATATAT [XGTACX_site4309] | 9.205 ± 0.064
AATATTCAATATATATATATATATAATATTAATATA [GTGCAC_negctrl_site571] | 7.54 ± 0.35
AAGGATTTTTTATACACACACTAACTAATGTATATA [CACACA_site7163] | 7.71 ± 0.68
TAATACCATAACAAGTGTACATAAATAATTATTGTA [XGTACX_site4949] | 7.92 ± 0.45
ATATTTTATTTAATTACACACAATATTGCAATTTGT [CACACA_site669] | 8.35 ± 0.53
ATCAACATTATGGTTAGTACTTAGTGAATTGTTAAT [XGTACX_site4926] | 7.63 ± 0.59
TTATACACCTTTCATTGTACATATAATTTATATTCT [XGTACX_site8685] | 8.21 ± 0.76
GTGTAATATATTTTTCGTACATATTATATATATATA [XGTACX_site1675] | 9.015 ± 0.049
TCTTCTAATTTACCTACACACAGGAGATATATAAAT [CACACA_site6276] | 7.89 ± 0.51
TAATTAATTTATTAGTTGCACTGTACCATTAGAGTA | 9 ± 0.11
GTTCATAAATTAAACACACACACACCCCTGGATACC [CACACA_site3331] | 9.115 ± 0.021
TATATATATATATATTGTACAAAATATTTATATGTT [XGTACX_site436] | 9.41 ± 0.44
CTTATATATTGGGATAGTACTTTTAACTAAATAGAA [XGTACX_site5900] | 7.76 ± 0.38
TGTTGTATTTTTACAACACACATTTAATCCATTTAA [CACACA_site1507] | 7.49 ± 0.45
